# Test results reported in PubChem BioAssay AID488969 (Vanderbilt High Throughput Screening Facility, 2010).
# In all, about 110,000 compounds were measured (“z-score”: median about -0.1, highest 2% from about 2 on). This is one part of the list.
# Molecular target: Metabotropic glutamate receptor 8 (Rattus norvegicus) (UniProt P70579)
# Assay: rat mGluR8 modulators via GIRK flux, primary screen, cell-based, thallium flux, HTS (AID 488969)
# Settings: HEK293 rat mGluR8, GIRK (G protein-gated inwardly rectifying potassium channel) thallium flux, FluoZin2; at 10 µM; stronger effect = higher value; submaximal glutamate (EC20) added with thallium
# UniProt P70579, sequence (P70579 whole entry, looked up): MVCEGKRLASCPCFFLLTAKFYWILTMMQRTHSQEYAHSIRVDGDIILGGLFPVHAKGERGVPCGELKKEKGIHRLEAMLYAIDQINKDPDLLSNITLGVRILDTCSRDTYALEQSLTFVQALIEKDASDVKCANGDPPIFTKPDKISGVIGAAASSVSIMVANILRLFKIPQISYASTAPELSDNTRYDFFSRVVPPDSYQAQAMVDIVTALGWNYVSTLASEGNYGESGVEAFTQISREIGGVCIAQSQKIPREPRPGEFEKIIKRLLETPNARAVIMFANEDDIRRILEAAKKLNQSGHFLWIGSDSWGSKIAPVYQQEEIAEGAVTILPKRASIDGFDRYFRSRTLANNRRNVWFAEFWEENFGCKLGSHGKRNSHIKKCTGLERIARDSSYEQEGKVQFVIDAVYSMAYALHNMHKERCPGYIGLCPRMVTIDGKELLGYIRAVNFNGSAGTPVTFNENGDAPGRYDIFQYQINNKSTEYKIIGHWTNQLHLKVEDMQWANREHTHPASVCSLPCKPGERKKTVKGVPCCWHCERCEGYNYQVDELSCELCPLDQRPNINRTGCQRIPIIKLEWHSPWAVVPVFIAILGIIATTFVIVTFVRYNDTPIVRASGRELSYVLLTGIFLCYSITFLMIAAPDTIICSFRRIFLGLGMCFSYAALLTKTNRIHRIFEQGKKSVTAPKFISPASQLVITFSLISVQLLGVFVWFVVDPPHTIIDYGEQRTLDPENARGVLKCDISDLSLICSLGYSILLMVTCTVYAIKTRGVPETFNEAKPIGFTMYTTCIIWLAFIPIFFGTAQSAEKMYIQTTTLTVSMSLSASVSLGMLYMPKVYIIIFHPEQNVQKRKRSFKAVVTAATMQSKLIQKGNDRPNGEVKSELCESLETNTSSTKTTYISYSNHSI
row,Compound,z-score
1,COCCN(CC(=O)NC1CCCCC1)C(=O)CSc1nc2ccccc2o1,0.165
2,Cc1onc(-c2c(F)cccc2Cl)c1C(=O)N1CCc2ccccc2C1,0.182
3,O=C(O)CCC(=O)N1CCc2cc(S(=O)(=O)NC3CCCc4ccccc43)ccc21 (stereo unspecified),-0.137
4,Cc1ccc(N=C2NC(=O)C(CC(=O)NCc3ccccc3)S2)cc1C (stereo unspecified),-0.263
5,CCCc1nc(C)c(-c2ccc(OC)c(OC)c2)c(=O)[nH]1,-0.363
6,CCc1ccc2oc(-c3cc(N)ccc3O)nc2c1,-0.0848
7,O=c1c2ccccc2nnn1CSc1ccccc1,-0.428
8,O=C(CNC(=O)/C(=C\c1ccccc1)NC(=O)c1ccc(Br)cc1)OCc1ccccc1,-0.33
9,O=S(=O)(Nc1ccc(S(=O)(=O)Nc2nccs2)cc1)c1ccc2c(c1)OCCO2,0.181
10,COc1ccc([N+](=O)[O-])cc1NC(=O)Cc1ccc(C)cc1,-1.2
11,Cc1cc(C(=O)NCC(=O)O)c(C)o1,0.711
12,CCOc1ccc(CNc2ccc3c(c2)ncn3C)cc1,-0.34
13,O=C(Nc1ccc(OC(F)F)c(Cl)c1)c1cccc(OC(F)F)c1,-0.59
14,CCOc1cc(/C=N/NC(=O)CN(CCc2ccccc2)S(=O)(=O)c2ccc(NC(C)=O)cc2)ccc1O,-0.033
15,N#Cc1ccsc1NC(=O)CN1CCN(S(=O)(=O)c2ccc3ccccc3c2)CC1,-0.12
16,CCOC(=O)C(Oc1ccc2c(-c3ccccc3)cc(=O)oc2c1)c1ccccc1 (stereo unspecified),-0.0611
17,CCOC(=O)N1CCN(C(=O)c2ccc3c(SCC(=O)O)c4c(nc3c2)CCC4)CC1,-0.204
18,O=[N+]([O-])c1ccc(Sc2ccccc2Cl)nc1,-0.548
19,O=[N+]([O-])c1ccc(N/N=C/c2ccccc2)c(F)c1,-0.198

row,Compound,z-score
1,O=c1cc(Cl)[nH]c(=O)n1CCNc1ncc(C(F)(F)F)cc1Cl,-0.316
2,CC(C)(C)NC(=O)c1cnn(-c2ccccc2)c1NC(=O)c1ccccc1,-0.209
3,COC(=O)CSc1ccc(S(=O)(=O)N2CCOCC2)cc1[N+](=O)[O-],-0.0155
4,Cc1cccc(-n2nnnc2SC(C)C(=O)NCCC2=CCCCC2)c1 (stereo unspecified),-0.423
5,O=C(C1CCCN1S(=O)(=O)c1cccc2cccnc12)N1CCN(c2ccccc2)CC1 (stereo unspecified),-0.0642
6,CCOc1ccc(-c2nc3n(c(=O)c2C#N)CCCS3)cc1,-0.183
7,CC1(C)Cc2cccc(OCC(=O)Nc3cccnc3)c2O1,0.958
8,CC1CCc2cc(F)ccc2N1C(=O)CCC(=O)O (stereo unspecified),0.577
9,O=C(Nc1cccc2ncccc12)C(Cl)(Cl)Cl,0.562
10,COc1ccccc1CNc1nc(S(=O)(=O)c2ccccc2)c(Cl)s1,-0.0774
11,CCSc1nc2cc(C(=O)OC)ccc2c(=O)n1CC,0.836
12,Nc1nc(SCc2c(Cl)cccc2Cl)n[nH]1,0.732
13,COc1ccc(OC)c(/C=c2\sc3nc(-c4cccs4)nn3c2=O)c1,-0.157
14,CCOC(=O)N1CCN(C(=O)C2CCC(C(=O)N3CCN(C(=O)OCC)CC3)CC2)CC1 (stereo unspecified),-0.0877
15,CCOC(=O)COc1nc(N(C)C)nc(N(C)C)n1,0.741
16,CN1C(=O)N(C)C2(c3ccccc3)Nn3c(s/c(=C/c4ccccc4)c3=O)=NC12c1ccccc1 (stereo unspecified),-0.306
17,CC(=O)N1CCc2cc(S(=O)(=O)NC3CCCc4ccccc43)ccc21 (stereo unspecified),-0.27
18,CCN(CC(=O)Nc1ccc2c(c1)OCCO2)C(=O)C1CCCCC1,-0.124
19,CCn1c(CNC(=O)c2ccccc2)nnc1SCC(=O)N1CCN(c2ccccc2)CC1,-0.187

row,Compound,z-score
1,CSCc1c(C(=O)NC2CCCc3ccccc32)oc2ccccc12 (stereo unspecified),0.291
2,O=C(CCc1ccccc1)NNC(=O)c1ccc(NC(=O)c2ccccc2)cc1,0.0748
3,COc1cc(OC)c(NC(=O)Nc2ccc(OC)c(OC)c2)cc1Cl,-0.608
4,COc1cc(C(=O)Nc2ccncc2)cc(OC)c1OC,-0.414
5,Cn1c(=O)c2c(nc(NCCc3ccccc3)n2CC(=O)NCCc2ccccc2)n(C)c1=O,0.112
6,COc1ccc(CC(=O)Nc2cc(C)on2)cc1OC,0.181
7,O=C(Nc1cccnc1)C1(c2ccccc2)CCCC1,-0.0707
8,Cc1ccc(NC(=O)CSc2nnc(-c3cnccn3)n2Cc2ccco2)cc1,0.329
9,O=C(O)Cn1nnn(-c2ccccc2)c1=S,0.265
10,O=C(CSc1nc2ccccc2[nH]1)NCCc1ccc(Cl)cc1,0.0542
11,CCCCn1c(CNC(=O)Cc2ccccc2)nc2ccccc21,-0.236
12,Cc1ccc(CCN2CC(C(=O)NCc3cccnc3)CC2=O)cc1 (stereo unspecified),-0.0946
13,CCSc1nc(N2CCOCC2)c2c(c1C#N)CCCC2,-0.478
14,CCCc1nc2ccccc2n1CCOC,-0.145
15,Cc1ccc2cc(CN(C(=O)c3ccco3)c3ccccc3C)c(=O)[nH]c2c1,-0.547
16,O=C(Nc1nccs1)C1CCCN1S(=O)(=O)c1ccc(Cl)cc1 (stereo unspecified),0.437
17,Cc1ccc(S(=O)(=O)/N=C(\CN2CCOCC2)N2CCCC2)cc1,0.619
18,CCc1ccc(N/C(SCc2cccc(F)c2)=C(/C#N)C(=O)NCc2ccco2)cc1,0.197
